Results as given in PubChem BioAssay AID1671188 (National Center for Advancing Translational Sciences (NCATS), 2021).
Values joined by “and” are separate entries in the source; they are usually repeats but may differ in a detail not shown here. Equal values may be shown once. In all, about 100,000 compounds went through this assay and about 250 (0.25%) were called active. Inconclusive results, whose numbers are uncertain, are shown with a selection of clear calls. The call rests on the fitted dose curve; in most records, active means well fitted inhibition curve with a large enough effect; inconclusive means small, poorly fitted or top-dose-only effect; inactive means flat fitted curve, though single readings scatter. Where the call is inconclusive, the potency comes from a doubtful curve fit.

These molecules were tested against Alanine aminotransferase 2 (Homo sapiens) (UniProt Q8TD30) (assay: Primary qHTS assay for inhibitors of Glutamate pyruvate transaminase 2 (GPT2)). Conditions: Recombinant GPT2, coupled pyruvate oxidase/HRP Amplex Red fluorescence; activity change, negative = inhibition: at 57.7 µM (top of the series) unless noted; series mostly up to 57.7 µM.
Outline: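 Fluorescence of coupled pyruvate oxidase/HRP/Amplex Red system (50uM Amplex, 30 min, dark) reports pyruvate formed by GPT2. Enzyme reaction: 10ng/uL GPT2, 2mM L-alanine, 250uM a-KG, 30 min room temperature, pH 7.5; 50uM AOA control.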
Further: nearly all actives have a fitted effect of over 60% in size.
On the % scale 0 is the no-effect control and ±100 the full control effect; potency means the concentration at half of the fitted maximal effect; tags describe the fitted curve by direction and shape.

Chain of UniProt Q8TD30 (Q8TD30 whole entry, looked up): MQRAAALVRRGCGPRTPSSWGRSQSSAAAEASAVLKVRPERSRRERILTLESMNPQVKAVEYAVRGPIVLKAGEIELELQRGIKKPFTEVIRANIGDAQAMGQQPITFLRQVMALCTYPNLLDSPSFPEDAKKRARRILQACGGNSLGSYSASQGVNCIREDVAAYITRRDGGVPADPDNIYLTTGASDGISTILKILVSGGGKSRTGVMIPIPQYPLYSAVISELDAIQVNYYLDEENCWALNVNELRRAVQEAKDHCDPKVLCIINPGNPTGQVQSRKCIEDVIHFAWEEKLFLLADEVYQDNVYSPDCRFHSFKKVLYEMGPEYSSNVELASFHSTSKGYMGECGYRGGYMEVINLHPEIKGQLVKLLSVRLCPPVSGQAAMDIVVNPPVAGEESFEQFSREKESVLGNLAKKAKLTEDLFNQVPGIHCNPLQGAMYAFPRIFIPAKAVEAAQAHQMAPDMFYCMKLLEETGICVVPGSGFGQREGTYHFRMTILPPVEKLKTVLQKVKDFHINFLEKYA

Row | SMILES | activity change, negative = inhibition | Potency | outcome
1 | CCn1ncc(N2CCC(NC(=O)c3ccc(OC)cc3C)CC2)cc1=O | inactive: 3.8% |  | 
2 | COc1cncc(Nc2cnc3ccc(-c4ccccc4OC)nn23)c1 |  | inconclusive: 2.82 µM [inhibitor, partial curve, poor fit] | 
3 | Cc1[nH]nc2c1C(c1ccc(Cl)cc1)C(C#N)=C(N)O2 (centres undefined) |  | inconclusive: 39.8 µM [inhibitor, single point] | 
4 | CN1c2cc(C(=O)Nc3ccc(OC(F)(F)F)cc3)ccc2C(=O)N2CCCCC21 (centres undefined) |  |  | inactive
5 | CN1CC(=O)N(C2CCCC2)Cc2c(NC3CCCC3)ncnc21 |  | inconclusive: 39.8 µM [inhibitor, single point] | 
6 | Cc1ccc(CN2CC[C@@H]3[C@H]2C(=O)NC[C@H](CCC(=O)Nc2ccccc2)N3C)cc1 |  | inconclusive: 39.8 µM [inhibitor, partial curve, poor fit] | 
7 | O=C1c2cnc(-c3ccncc3)nc2OCCN1Cc1ccc(F)cc1F |  | inconclusive: 35.5 µM [inhibitor, single point] | 
8 | COc1ccc(CN2CC(COc3ccccc3)Oc3ncccc3[S+]2(=O)[O-])cc1 (centres undefined) | inactive: -8.06% [at 27.3 µM] |  | 
9 | Cc1ccc(-c2cc(N3CCC(CNC(=O)c4ccc[nH]4)CC3)n[nH]2)cc1 |  | inconclusive: 20 µM [inhibitor, single point] | 
10 | COc1ccc(Nc2ccnc(N3CC4CCC(C3)N4CC(F)(F)F)n2)cc1 |  | inconclusive: 8.91 µM [inhibitor, single point] | 
11 | N#Cc1cccnc1-c1cccc(C(=O)NCCNC(=O)c2ccc(F)cc2)c1 | inactive: -1.51% |  | 
12 | Cn1cc(-c2ccncc2)cc1C(=O)N1CCN(c2cccc(Cl)c2)CC1 | inactive: -16.1% |  | 
13 | CN[C@@H](C)c1nc(C2CCOCC2)nn1CC1CCCCC1 | inactive: -4.85% |  | 
14 | Cc1noc(-c2cn(C3CCN(C(=O)c4ccc(F)cc4)C3)nn2)n1 (centres undefined) |  | inconclusive: 6.31 µM [inhibitor, single point] | 
15 | Cc1cc(F)ccc1OC1CN(Cc2ccccc2)C1 |  | inconclusive: 56.2 µM [inhibitor, single point] | 
16 | Cc1nonc1OCCn1cc(C2CCCNC2)nn1 (centres undefined) |  | inconclusive: 39.8 µM [inhibitor, single point] | 
17 | CNc1nccc(N2CCC(CC(=O)NCc3cccc(OC)c3OC)CC2)n1 |  |  | inactive
18 | c1cncc(-c2ccnc(NCCCN3CCCc4ccccc43)n2)c1 |  | inconclusive: 14.1 µM [inhibitor, partial curve] | 
19 | CCC1(O)CCC12CCN(C(=O)c1cccnc1)CC2 (centres undefined) |  | inconclusive: 6.31 µM [inhibitor, single point] | 
20 | N#Cc1ccccc1CN1CCNc2nc(CN3CCN(CCO)CC3)n(Cc3ccccc3)c2C1=O |  | inconclusive: 3.16 µM [inhibitor, single point] | 
21 | Clc1ccc(C(Cn2ccnc2)OCc2c(Cl)cccc2Cl)c(Cl)c1 (centres undefined) |  | inconclusive: 12.2 µM [inhibitor, full curve] | 
22 | O=C(c1ccoc1)N1CCC(c2noc(C3CC3)n2)C1 (centres undefined) |  | inconclusive: 39.8 µM [inhibitor, single point] | 

Row | SMILES | activity change, negative = inhibition | Potency | outcome
23 | CC(C)n1nc(-c2cc3cc(O)ccc3[nH]2)c2c(N)ncnc21 |  | active: 10 µM and active: 8.91 µM | 
24 | COc1ccc(-n2cc(CN3CCC(CO)CC3)c(-c3cccc(F)c3)n2)cc1 | inactive: -22% |  | 
25 | CCOc1ccccc1CN1CCCN(Cc2ccncc2)C(c2ccccc2)CC(=O)NCC1 (centres undefined) |  |  | inactive
26 | CC(=O)Nc1cc(C(=O)N2CCC(C)CC2)c2ccc(C)nc2c1 |  |  | inactive
27 | O=C(O)c1ccc(CN2Cc3[nH]cnc3C[C@H]2c2nc(-c3ccc4ccccc4c3)no2)cc1 |  | inconclusive: 3.98 µM [inhibitor, single point] | 
28 | Cc1ccc(CN2C(=O)NC3(CCCN(C(=O)c4ccc5c(c4)OCO5)C3)C2=O)cc1 (centres undefined) | inactive: -6.02% |  | 
29 | CCCn1ccc2oc(C)c(C(=O)N3CCN(c4ccc(OC)cc4)CC3)c2c1=O |  | inconclusive: 28.2 µM [inhibitor, partial curve] | 
30 | O=C(c1csc(N2CCN(c3ccccc3)CC2)n1)N1CCN(c2ccccn2)CC1 |  | inconclusive: 25.1 µM [inhibitor, single point] | 
31 | CCN(C)C(=O)CN1C[C@@H]2C[C@H]1C(=O)N2c1cc(-c2ccccc2)ccc1OC |  | inconclusive: 6.31 µM [inhibitor, single point] | 
32 | COc1ccc(OCC2CC3(CCCCC3)CN2S(C)(=O)=O)cc1 (centres undefined) |  | inconclusive: 28.2 µM [inhibitor, single point] | 
33 | COc1ccc(C2Cn3nnc(-c4nc(C5CCCCC5)no4)c3CO2)cc1 (centres undefined) |  | inconclusive: 28.2 µM [inhibitor, single point] | 
34 | CCC1Oc2ccc(NC(=O)C(CC)c3ccccc3)cc2CN(Cc2ccccc2)C1=O (centres undefined) |  | inconclusive: 5.01 µM [inhibitor, partial curve, poor fit] | 
35 | N#Cc1cccc(C#N)c1-c1nc2c3ccccc3c3cc(Cl)ccc3c2[nH]1 |  | inconclusive: 39.8 µM [inhibitor, single point] | 
36 | Oc1cc(-c2cccc(Cl)c2)cc2c1OCCN(Cc1noc(C3CC3)n1)C2 | inconclusive: -31.4% [inhibitor] [at 11.5 µM] |  | 
37 | CCn1cc(-c2ccc(C)cc2)cc1C(=O)N1CCC(C)CC1 |  |  | inactive
38 | COc1ccc(C(=O)N2CCC3(CC2)N=C(c2ccc(Cl)cc2)NO3)cc1OC |  |  | inactive
39 | CN(CC1(CO)CC1)c1nccc(CCC(F)(F)F)n1 |  | inconclusive: 7.08 µM [inhibitor, single point] | 
40 | Cc1nnc(-c2cc(-c3cccc(O)c3)ccn2)n1CCc1ccccc1 |  | inconclusive: 31.6 µM [inhibitor, single point] | 
41 | CCn1cc(-c2ccc(C)cc2)cc1C(=O)NC(C)c1ccccn1 (centres undefined) |  |  | inactive
42 | CCOc1ccccc1NC(=O)N1CCC2(CC1)CC2c1noc(C)n1 (centres undefined) |  | inconclusive: 3.98 µM [inhibitor, partial curve, poor fit] | 
43 | COc1cc(F)ccc1-c1cc(-c2c(C)noc2C)cc2c1C(=O)N(C)C2 |  | inconclusive: 56.2 µM [inhibitor, single point] | 
44 | O=C(Nc1ccccc1)N[C@H]1[C@H](O)[C@@H](N2CCN(c3ccccc3)CC2)[C@@H]2OC[C@H]1O2 |  | inconclusive: 14.1 µM [inhibitor, partial curve, poor fit] | 
